# From ChEMBL document CHEMBL5606458, “ASAP - ZIKV NS2B-NS3 protease fluorescence single point” (2024)
# The whole screen tested about 2,700 compounds, of which about 160 (5.9%) showed an effect of 50% or more. The list shows a part of the results.
# Biological target: Nonstructural protein 3 (Zika virus) (UniProt A0A024AXB9)
# [1] = PRVABC59, Concentration 15.0 uM, Number of replicates 1.0
# [2] = PRVABC59, Concentration 50.0 uM, Number of replicates 1.0
# Chain of UniProt A0A024AXB9 (A0A024AXB9 as listed by the source): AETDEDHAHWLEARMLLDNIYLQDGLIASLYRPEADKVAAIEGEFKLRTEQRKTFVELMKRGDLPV
compound,measurement,setting,value
O=C(NCCc1cccc(Br)c1)c1cc(Cl)ccc1NS(=O)(=O)c1ccc(Oc2ccccc2Cl)cc1,inhibition,[1],25.4%
COc1cccc(OCCCNC(=O)C2CCN(c3ccc(C=O)cc3)CC2)c1,inhibition,[2],9.81%
C[C@@H](c1ccccc1)N(CC1CC1)C(=O)c1cc(Cl)ccc1NS(=O)(=O)c1ccc(Oc2ccccc2Cl)cc1,inhibition,[1],22.3%
O=Cc1ccc(N2CCC(C(=O)N3CCC(C(F)(F)F)CC3)CC2)cc1,inhibition,[2],26.2%
COc1ccc(S(=O)(=O)n2nc(OC(=O)c3ccccc3)cc2N)cc1,inhibition,"PRVABC59, Concentration 49.5 uM, Number of replicates 2.0, Standard deviation 0.018531126353269887 %",99.1%
same,inhibition,"PRVABC59, Concentration 99.01 uM, Number of replicates 2.0, Standard deviation 0.03874003445206144 %",99.1%
same,inhibition,"PRVABC59, Concentration 198.0 uM, Number of replicates 2.0, Standard deviation 0.035373681367799316 %",99%
CC(C)(C)N(Cc1cccnc1)C(=O)c1cc(Cl)ccc1NS(=O)(=O)c1ccc(Oc2ccccc2Cl)cc1,inhibition,[1],21.6%
O=C(c1ccn([C@H]2CCCNC2)n1)N1CC[C@H](c2cc(O)[nH]n2)C1,inhibition,"PRVABC59, Concentration 49.5 uM, Number of replicates 2.0, Standard deviation 3.310524778668719 %",-0.872%
same,inhibition,"PRVABC59, Concentration 99.01 uM, Number of replicates 2.0, Standard deviation 4.319681080099742 %",-0.283%
same,inhibition,"PRVABC59, Concentration 198.0 uM, Number of replicates 2.0, Standard deviation 0.2522890964311802 %",-1.9%
O=Cc1ccc(N2CCC(C(=O)Nc3cc(Cl)nc(Cl)n3)CC2)cc1,inhibition,[2],17.4%
O=C(NC1(c2cccc(F)c2)CC1)c1cc(Cl)ccc1NS(=O)(=O)c1ccc(Oc2ccccc2Cl)cc1,inhibition,[1],30.5%
CC(=O)Nc1ccc(NC(=O)C2CCN(c3ccc(C=O)cc3)CC2)cc1,inhibition,[2],11.4%
CN(CCC=C1c2ccccc2CCc2ccccc21)C(=O)c1cc(Cl)ccc1NS(=O)(=O)c1ccc(Oc2ccccc2Cl)cc1,inhibition,[1],2.51%
CN(CCc1ccccc1F)C(=O)C1CCN(c2ccc(C=O)cc2)CC1,inhibition,[2],25.8%
Cc1ccc(CN(C(=O)c2cc(Cl)ccc2NS(=O)(=O)c2ccc(Oc3ccccc3Cl)cc2)C2CC2)s1,inhibition,[1],15.2%
O=Cc1ccc(N2CCC(C(=O)Nc3ncnc(Cl)c3Cl)CC2)cc1,inhibition,[2],17.7%
O=C(Nc1ncnc2c1ncn2CCO)c1cc(Cl)ccc1NS(=O)(=O)c1ccc(Oc2ccccc2Cl)cc1,inhibition,[1],20.6%
O=C(Nc1nnc(Cl)cc1Br)c1cc(Cl)ccc1NS(=O)(=O)c1ccc(Oc2ccccc2Cl)cc1,inhibition,[1],24.2%
O=C(c1cc(Cl)ccc1NS(=O)(=O)c1ccc(Oc2ccccc2Cl)cc1)N1CCN(c2nccs2)CC1,inhibition,[1],14.1%
CC(C)(CO)NC(=O)c1cc(Cl)cc(OCc2ccccn2)c1,inhibition,"PRVABC59, Concentration 49.5 uM, Number of replicates 2.0, Standard deviation 3.4081981191908355 %",-2.68%
same,inhibition,"PRVABC59, Concentration 99.01 uM, Number of replicates 2.0, Standard deviation 2.4351306047062957 %",-2.68%
same,inhibition,"PRVABC59, Concentration 198.0 uM, Number of replicates 2.0, Standard deviation 3.659259520071742 %",-0.396%
CC(C)(CNC(=O)c1cc(Cl)ccc1NS(=O)(=O)c1ccc(Oc2ccccc2Cl)cc1)c1cccc(Cl)c1,inhibition,[1],47.6%
CCN(CCNC(=O)C1CCN(c2ccc(C=O)cc2)CC1)c1cccc(C)c1,inhibition,[2],21.9%
Cc1cc(CO)c2cccc(NC(=O)c3nc(N)n[nH]3)c2n1,inhibition,"PRVABC59, Concentration 49.95 uM, Number of replicates 2.0, Standard deviation 1.6810779662500097 %",28.9%
same,inhibition,"PRVABC59, Concentration 99.9 uM, Number of replicates 2.0, Standard deviation 2.6897269039186593 %",60.8%
O=C(Nc1ccc(Oc2ccc(Cl)cc2)cc1)c1cc(Cl)ccc1NS(=O)(=O)c1ccc(Oc2ccccc2Cl)cc1,inhibition,[1],14.2%
CN(C(=O)OC(C)(C)C)[C@H]1CCN(C(=O)C2CCN(c3ccc(C=O)cc3)CC2)C1,inhibition,[2],18.8%
COc1cc(Cc2ccc3c(c2)NC(=O)CO3)nc(N2CCNCC2)n1,inhibition,"PRVABC59, Concentration 49.5 uM, Number of replicates 2.0, Standard deviation 1.5078451044167143 %",2.01%
same,inhibition,"PRVABC59, Concentration 99.01 uM, Number of replicates 2.0, Standard deviation 1.992324518895442 %",4.72%
same,inhibition,"PRVABC59, Concentration 198.0 uM, Number of replicates 2.0, Standard deviation 1.6814286280296202 %",10.8%
